Results as given in article PMC9639148 (Journal for Immunotherapy of Cancer, 2022).

Target: APOBEC3B in KYSE150-APOBEC3B cells (Homo sapiens, UniProt Q9UH17)
Experiment: Fluorescence-based ssDNA deaminase analysis within KYSE150-APOBEC3B cells

Sequence of UniProt Q9UH17 (Q9UH17 whole entry): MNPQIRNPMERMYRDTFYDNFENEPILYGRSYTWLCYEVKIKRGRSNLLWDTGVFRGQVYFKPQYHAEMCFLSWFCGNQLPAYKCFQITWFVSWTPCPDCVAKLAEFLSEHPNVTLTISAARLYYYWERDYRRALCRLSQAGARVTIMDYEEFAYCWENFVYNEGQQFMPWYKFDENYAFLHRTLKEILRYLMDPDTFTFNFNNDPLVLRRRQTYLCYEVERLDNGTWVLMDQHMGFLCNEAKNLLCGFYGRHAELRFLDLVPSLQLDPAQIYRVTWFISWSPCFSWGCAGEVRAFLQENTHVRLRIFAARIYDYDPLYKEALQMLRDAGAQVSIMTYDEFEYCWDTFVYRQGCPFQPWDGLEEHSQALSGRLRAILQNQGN

Structure (SMILES): N[C@@H](Cc1cc(I)c(O)c(I)c1)C(=O)O [SMC247, 3,5-diiodotyrosine]
- deaminase activity of APOBEC3B in KYSE150-APOBEC3B cells: strongly inhibit
